The values below come from paper PMC6919601, “Identification of Plasmodium dipeptidyl aminopeptidase allosteric inhibitors by high throughput screening” (PLoS ONE, 2019).

Out of some 110,000 compounds screened, about 230 (0.21%) showed an effect of 50% or more. The list shows a part of the results.
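Also: 30 min substrate incubation versus DMSO and 10 µM JCP410 controls.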

Chain of DPAP1 (Q8IIJ9 whole entry, looked up): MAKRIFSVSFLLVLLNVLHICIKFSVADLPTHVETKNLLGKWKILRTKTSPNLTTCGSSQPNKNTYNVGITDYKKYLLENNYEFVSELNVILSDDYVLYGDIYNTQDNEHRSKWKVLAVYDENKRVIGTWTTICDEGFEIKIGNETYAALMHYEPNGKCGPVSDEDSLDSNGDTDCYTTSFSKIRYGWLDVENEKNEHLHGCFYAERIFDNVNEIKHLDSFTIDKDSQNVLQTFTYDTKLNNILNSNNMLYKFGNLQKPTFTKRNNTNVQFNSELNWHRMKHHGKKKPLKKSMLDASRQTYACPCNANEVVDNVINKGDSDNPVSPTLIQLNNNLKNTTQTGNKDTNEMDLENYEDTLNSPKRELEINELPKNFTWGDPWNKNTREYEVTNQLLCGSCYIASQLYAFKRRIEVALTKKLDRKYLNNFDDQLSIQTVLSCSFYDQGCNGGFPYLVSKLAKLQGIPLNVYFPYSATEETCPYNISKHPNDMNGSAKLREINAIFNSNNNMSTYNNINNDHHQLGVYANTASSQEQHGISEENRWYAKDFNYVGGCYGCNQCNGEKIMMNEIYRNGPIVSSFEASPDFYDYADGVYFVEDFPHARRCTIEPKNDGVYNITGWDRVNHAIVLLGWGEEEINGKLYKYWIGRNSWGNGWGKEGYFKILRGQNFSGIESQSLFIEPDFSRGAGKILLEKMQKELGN

This experiment addresses DPAP1 (Plasmodium falciparum, UniProt Q8IIJ9). The experiment in a line: primary screen, percent inhibition; read by cleavage of a fluorogenic dipeptide substrate; higher = more effect of the substance. Also noted: species or system P. falciparum D10 trophozoite lysates; single well.
For the compound `Cc1ccc(S(=O)(=O)NCC(=O)N2CCCCC2)cc1`, the “% Inhibition @ 10 uM” value stood at 1.84%.

In the case of `CC1(C)CC(=O)CC(c2ccccc2)(C(F)(F)F)O1` (stereo not shown), the “% Inhibition @ 10 uM” value was 4.51%. `Cc1cc(C)c(N2C(=O)c3ccc(C(=O)NCc4cccnc4)cc3C2=O)c(C)c1`: the “% Inhibition @ 10 uM” value was -1.57%.

In the case of `CCN(CC)CCCCOc1ccccc1C(C)(C)C`, the “% Inhibition @ 10 uM” value turned out to be 1.35%. Take `Cc1ccc(OCC(=O)Nc2ccccc2O)c(C)c1`: the “% Inhibition @ 10 uM” value is recorded as 0.795%. In the case of `OCCCNc1c2ccccc2nc2ccccc12` it was -5.38%; in that of `Cc1ccc(-c2nn(CCC(=O)N3CCN(C)CC3)c(=O)c3ccccc23)cc1`, 2.25%; in that of `CCOC(=O)N1CCC(N2CCN(C(C)=O)CC2)CC1`, -3.35%.

Take `CCCNC(=O)c1cnn(-c2ccccc2)c1C1CCN(C(=O)OC(C)(C)C)CC1`: the “% Inhibition @ 10 uM” value came to 0.886%. In the case of `COc1ccc(-c2nn(-c3nc4ccccc4s3)c(O)c2/C=N/CC2CCCO2)cc1` (stereo not shown) it was 4.18%. Consider `O=C1CCCN1CCCn1cnc2c3ccccc3nc-2c1O`, for which the “% Inhibition @ 10 uM” value amounted to 1.64%. With `COc1cc(OC)cc(C(=O)N2c3ccc(F)cc3CCC2C)c1` (stereo not shown), the “% Inhibition @ 10 uM” value is -1.44%. `CCOc1ccc2nc(NC(=O)c3ccco3)sc2c1`: the “% Inhibition @ 10 uM” value is -0.25%. In the case of `Oc1nc2ccc(Cl)cc2c(O)c1Cc1ccccc1` it was 5.81%; in that of `COc1ccc(CCN2/C(=N/C(=O)CCC(=O)O)SC3CS(=O)(=O)CC32)cc1OC` (stereo not shown), -3.14%; in that of `Cc1ccc(-c2cc(C(F)F)n3ncc(C(=O)N4CC5(C)CC4CC(C)(C)C5)c3n2)cc1` (stereo not shown), -2.75%. In the case of `O=C(NCCCN1CCOCC1)c1ccccc1` it was 1.02%.

For `COc1cc(C2c3c(oc4ccccc4c3=O)C(=O)N2c2nnc(C)s2)ccc1O` (stereo not shown), the “% Inhibition @ 10 uM” value is reported as -7.38%.

`CCCCN(CCNC(=O)c1noc2c1COc1ccc(C)cc1-2)Cc1ccco1`: the “% Inhibition @ 10 uM” value is listed as -7.84%. In the case of `O=C(CSc1nnc(CNC(=O)c2ccccc2F)n1-c1ccccc1)Nc1nccs1` it was -1.3%. To `COc1ccc(C(=O)c2c(C)c3ccccc3n2C)cc1OC` belongs 1.42%; to `CC1=C(C(=O)Nc2cccc(C)n2)C(c2ccc(Cl)cc2Cl)C2=C(O)CCCC2=N1` (stereo not shown), -0.305%; to `C#CC(C)(C)NCCC(=O)C1=CCCCC1`, 2.47%. To `O=C(Nc1ccccc1)N(CCCN1CCOCC1)Cc1ccccc1F` belongs -4.12%; to `CC1=C(C(=O)Nc2cccc(C)c2)C(c2ccc(Cl)cc2Cl)NC(S)=N1` (stereo not shown), -1.56%. In the case of `COc1ccc(S(=O)(=O)N2CCC(C)CC2)cc1`, the “% Inhibition @ 10 uM” value is reported as 3.47%. To `COc1ccc2[nH]c(S(=O)(=O)C[C@@H](CCc3ccccc3)NC(=O)[C@H](CC(C)C)NC(=O)OCc3ccccc3)nc2c1` belongs -5.64%; to `Cc1nn(-c2ccccc2)c(O)c1/C=N/c1ccccc1Cl`, 1.08%.
